These results are taken from PubChem BioAssay (NCI).

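Dose response: 5 concentrations. Exposure: 48 h. Format: 96-well plates. Endpoint: linear interpolation; highest concentration if not reached. GI50 marks 50% less growth. TGI denotes the concentration required for complete inhibition of growth.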 Bounds are passed on as bounds.

The experiment relates to NCI-H322M lung. Kind of experiment: NCI anticancer screen, dose series, 48 h.
For the molecule `O=c1[nH]c2ccccc2cc1CSc1ccc(Nc2nccc(-c3ccc(Cl)cc3)n2)cc1`, the GI50 is 1.42 µM and the TGI was found to be 3.96 µM.

With `C=C1CCC2C3(C)COC(c4ccc(F)cc4)OC3CCC2(C)C1C/C=C1/C(=O)OCC1O` (configuration not stated), the GI50 is 4.6 µM and the TGI was 16.8 µM.

Take `Cn1cc(-c2cc(N)n3nc(-c4cn(C)c5ccccc45)cc3n2)c2cc(Cl)ccc21`: the GI50 was 5.14 µM and the TGI was found to be 28.9 µM.

With `CN(C)CCOc1ccc(C(=O)C2[C@H](c3ccc(Cl)cc3)[C@@H](c3ccccc3)NC23C(=O)Nc2ccccc23)cc1` (some centres not stated), the GI50 is 11 µM and the TGI is more than 18.5 µM.

In the case of `FC(F)(F)CN1CCN(CCn2c(C(F)(F)F)cc3c(Cl)ncnc32)CC1`, the GI50 is 5.53 µM and the TGI is 19.1 µM.

For `O=C(/C=C/c1cccc(OCc2ccccc2)c1)c1nc2ccccc2[nH]1`, the GI50 was 27.7 µM and the TGI was more than 100 µM.
